From PubChem BioAssay AID1159614 (National Center for Advancing Translational Sciences (NCATS), 2016)
Hit rate of the full screen: of about 45,000 compounds, about 65 (0.1%) were called active. Calls come from the whole dose curve; as a rule, active = well fitted activation curve with a large enough effect; inconclusive = small, poorly fitted or top-dose-only effect; inactive = no such curve, though single readings can be large or run the other way. This is one part of the list.

Molecular target: Galactocerebrosidase (Homo sapiens) (UniProt P54803)
Experiment: A Novel Cell-Based Assay to Identify Small Molecules for B -Galactocerebrosidase; note: 0% is about no effect; nearly all actives have a fitted effect of over 65% in size
Conditions: 145M-Twi-hGALC-G270D cells (Twitcher mouse brain line with human GALC G270D), HMU-beta-Gal fluorescence, 48 h; series mostly up to 57.5 µM; activation: at the top concentration
In short: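 Mutant human GALC (G270D), stably expressed in a Twitcher mouse brain cell line lacking endogenous GALC, is measured in live-treated cells via 6-hexadecanoylamino-4-methylumbelliferyl-β-galactoside hydrolysis (0.1 mM final, pH 5.2) with fluorescent detection.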

Sequence of UniProt P54803 (P54803 whole entry, looked up): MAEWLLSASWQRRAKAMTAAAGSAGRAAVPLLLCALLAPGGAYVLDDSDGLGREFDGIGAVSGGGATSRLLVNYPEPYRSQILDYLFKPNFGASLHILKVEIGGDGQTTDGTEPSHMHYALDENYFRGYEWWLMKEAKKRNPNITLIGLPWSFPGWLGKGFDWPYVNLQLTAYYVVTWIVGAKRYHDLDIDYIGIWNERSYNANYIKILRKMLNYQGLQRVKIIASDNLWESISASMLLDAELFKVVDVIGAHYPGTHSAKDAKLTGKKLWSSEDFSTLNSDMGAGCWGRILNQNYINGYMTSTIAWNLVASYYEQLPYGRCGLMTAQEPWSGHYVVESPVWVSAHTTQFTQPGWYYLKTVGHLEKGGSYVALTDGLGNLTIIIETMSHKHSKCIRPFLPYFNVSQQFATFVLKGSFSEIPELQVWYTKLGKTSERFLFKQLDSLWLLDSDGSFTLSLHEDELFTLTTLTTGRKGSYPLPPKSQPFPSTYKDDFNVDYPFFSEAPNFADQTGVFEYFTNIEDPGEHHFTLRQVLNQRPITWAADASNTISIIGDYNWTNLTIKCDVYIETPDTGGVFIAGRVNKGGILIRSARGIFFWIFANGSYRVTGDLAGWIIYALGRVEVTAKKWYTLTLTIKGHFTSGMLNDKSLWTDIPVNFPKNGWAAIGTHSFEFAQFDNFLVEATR

activation, inactive:
COc1ccc(OCC(=O)Nc2nnc3n2CCS3)cc1 -19%
CCOC(=O)N1CCN(Cc2nc3cc(NC(=O)c4ccc(OC)cc4)ccc3n2C(C)C)CC1 -3.09%
Nc1ccc(S(=O)(=O)Nc2ccc(Cl)nn2)cc1 -15.4%
O=c1n(Cc2cccc(F)c2)c2ccccc2c2nc(-c3ccccc3)nn12 -1.39%
Oc1ccccc1C=NCc1ccccc1 -20.2%
CN(C)C=NC(=O)c1cc2c(n(-c3ccccc3)c1=O)CC(C)(C)CC2=O -4.47%
CCCCOc1ccc(C(C)NC(=O)c2cccc(Nc3nc4ccccc4n4nnnc34)c2)cc1 (configuration not stated) -9.06%
CCOc1ccc(CCNC(=O)CSc2n[nH]c(-c3ccccc3)n2)cc1OCC -8.35%
Cc1c(CC(=O)N2CCCCC2)c(=O)oc2c(C)c3occ(C(C)(C)C)c3cc12 -3.79%
COc1ccc(Cl)cc1NC(=O)C1CCN(c2nnc(C)c3c(C)n(-c4ccccc4)nc23)CC1 -10%
Cc1ccc(CN2CCSc3ccc(C(=O)NCCc4ccccc4)cc32)cc1 -10.3%
COc1ccc(CN(C(=O)Nc2cccc(Cl)c2)c2ccccn2)cc1OC -33.6%
Cc1cccc(N2CCN(C(=O)c3ccc(CS(=O)c4cccc(Cl)c4)o3)CC2)c1C (configuration not stated) -10.5%
COc1cccc(CSc2nc3n(n2)C(c2cccc(F)c2)C(C(=O)Nc2ccccc2C)=C(C)N3)c1 (configuration not stated) -19.9%
CN(C)c1cc2c(cc1NS(=O)(=O)c1ccccc1)n(C)c(=O)n2C -20.2%
COc1ccc(Cl)cc1NC(=O)CCS(=O)(=O)c1cccc2nonc12 1.92%
COc1ccc(CNC(=O)CCCN2C(=O)CSc3c2c(C)nn3-c2ccccc2)c(OC)c1 2.33%
CCSc1nnc2c(n1)OC(c1ccc(C)cc1)N(C(C)=O)c1ccccc1-2 (configuration not stated) -15.7%
COCCNC(=O)CCC(=O)N1Cc2cccc(OC)c2Oc2ncccc21 -17%
Cc1ccc(-c2[nH]c3ccccc3c2SCCNC(=O)c2ccc(S(=O)(=O)N(C)C)cc2)cc1 -7.87%
Cc1ccc(NC(=O)C(=O)NCC(c2cccnc2)N2CCOCC2)cc1Cl (configuration not stated) -12.3%
CCn1cc(S(=O)(=O)c2cccc(Cl)c2)c(=O)c2cc(F)c(N3CCC(C)CC3)cc21 -12.2%
Cc1ccc(-n2nc(C)c3c(C)cc(=O)n(CC(=O)N4CCCc5ccccc54)c32)cc1 3.76%
Cc1ccc(NC(=O)c2c(C)oc3ncnc(N4CCCCC4)c23)cc1Cl -13.1%
O=C(Cc1ccc(Cl)cc1)Nc1nnc2n1CCS2 -5.76%
COc1ccc(C)cc1NC(=O)CCc1c(C)nn(-c2ccc(N3CCOCC3)nn2)c1C -3.44%
COc1cccc(-c2ccc3c(N)c(C(=O)c4ccc(Br)cc4)sc3n2)c1 -11.2%
CCc1ccc(NC(=O)Cn2ccn(Cc3ccccc3OC)c(=O)c2=O)cc1 -3.65%
O=C(O)c1ccccc1NCCc1ccccc1 -13.9%
COc1cccc(CNC(=O)Cc2csc3ccccc23)c1OC -14.5%
COc1ccc(NC(=O)C(=O)NCC2(c3ccc(OC)c(OC)c3)CCCC2)cc1 -31.8%
Cc1cc(C)c(NS(=O)(=O)c2ccc(-c3cnc(C4CC4)o3)cc2)c(C)c1 -38.9%
O=C(COCc1cc(-c2cccs2)on1)NCc1ccc(Cl)cc1 -26.7%
COc1cc(NC(=O)Cn2nnc(-c3ccc(C(F)(F)F)cc3)n2)c(C(=O)O)cc1OC -5.36%
CCOc1ccc(N(CC)C(=O)C2CCN(S(=O)(=O)c3cccc4nonc34)CC2)cc1 -14.2%
COc1cccc(OCc2nc3ccccc3n2Cc2ccccc2C)c1 -12.3%
COc1ccc(NC(=O)CCCSc2nc(-c3ccco3)cc(C(F)(F)F)n2)c(OC)c1 5.32%
CCC(=O)n1nc(-c2cccnc2)nc1NCc1ccc(F)cc1 -16.1%
O=C(Cn1c(=O)oc2cc(S(=O)(=O)NCc3ccccc3)ccc21)Nc1ccc(F)c(Cl)c1 -6.57%
COc1ccc(CCC(=O)NC2CC(=O)N(c3cccc(F)c3)C2)cc1 (configuration not stated) -9.8%
Cc1c(Cl)cccc1Nc1nc(N)nc(CSc2nc3ccccc3s2)n1 -11.4%
CC1CCN(S(=O)(=O)c2ccc3c(c2)N(CC(=O)NCCc2ccc(Cl)cc2)C(=O)CO3)CC1 -4.07%
Cc1ccc(NC(=O)CCCn2c3ccccc3c(=O)c3cc(C)ccc32)c(Br)c1 -16.4%
CCOC(=O)c1c(C)[nH]c(C)c1S(=O)(=O)N1CCC(C(=O)N2CCN(c3cc(C)ccc3C)CC2)CC1 -14.1%
Cc1ccc2oc(C(=O)Nc3ccc(S(=O)(=O)Nc4onc(C)c4C)cc3)cc(=O)c2c1 -20.8%
O=C1CS(=O)(=O)C2(C(=O)N(Cc3ccc(F)cc3)c3ccccc32)N1c1cccc(C(F)(F)F)c1 (configuration not stated) -25.6%
O=C1SC(Nc2ccc(Cl)cc2)C(=O)N1Cc1ccccc1 (configuration not stated) 4.11%
CCCc1cc(=O)n2[nH]c(NCc3ccc(CC)cc3)nc2n1 -16.1%
O=C1c2[nH]nc(-c3ccccc3)c2C(c2ccccc2)N1c1cccc(C(F)(F)F)c1 (configuration not stated) -3.38%
CCCCCC(N)=O -17.9%
CCCCNC(=O)C1=CC(c2ccc3c(c2)OCO3)=NS(=O)(=O)N1C -3.97%
CCCC(=O)Nc1nnc(SCc2cc(=O)c3ccc(C)cc3[nH]2)s1 -37.9%
COc1cccc(C(=O)NCC(=O)OCc2cc(=O)n3nc(C)sc3n2)c1 -10.5%
O=C(CSc1ncc(S(=O)(=O)c2ccc(Cl)cc2)c(=O)[nH]1)Nc1ccc2c(c1)OCCO2 -14.1%
Cc1ccc(Cl)cc1N1CCN(C(=O)Cn2ncc3c([nH]c4ccccc43)c2=O)CC1 2.82%
Cc1ccc(-n2nc(CO)c(C(=O)NCCc3ccccc3)n2)cc1 -9.34%
COc1cccc(-n2c(=O)c3sc4ccccc4c3n(CC(=O)Nc3ccccc3OC)c2=O)c1 -16.3%
CCOc1ccc(N(C)C(=O)C2CCN(S(=O)(=O)c3ccc4c(c3)CCCN4C(C)=O)CC2)cc1 -19.5%
CCC(Sc1nc2ccncc2[nH]1)C(=O)Nc1ccc(F)cc1 (configuration not stated) -15.7%
C[C@H]1C[C@H]2[C@@H]3CCC4=CC(=O)C=C[C@]4(C)[C@@]3(Cl)[C@@H](O)C[C@]2(C)[C@@]1(O)C(=O)CO -19.6%
CCOC(=O)N1CCN(C(=O)c2ccc3c(c2)N(Cc2cc(C)ccc2C)C(=O)c2ccccc2S3=O)CC1 (configuration not stated) -6.96%
COc1ccc(CCNC(=O)CCc2cn(Cc3ccc(C)cc3)c3ccccc23)cc1OC -3.44%
